Here are results for 16 molecules from PubChem BioAssay AID2071 (Sanford-Burnham Center for Chemical Genomics, 2009).

This is one part of the list. These are further read-outs of the screen, such as a control signal, another cell line or another target. No call is given for them. Compounds called inactive in the main read-out are mostly missing here.

This experiment is described as follows: NALP1 inflammasome inhibitors in reconstituted yeast, colorimetric, S. cerevisiae, triplicate retest (AID 2071). Conditions: S. cerevisiae NALP1/ASC/caspase-1 growth, X-gal OD620, 72 h, at 20 µM, stronger effect = higher value.
Turning to `O=C(c1ccccc1)C(CN1CCCC1)c1ccccc1` (stereo unspecified), the inhibition (commonly the change of the read-out against control, counted positive when it falls) came to 110%.

With `Fc1ccc(C(OCCN2CCCC2)c2ccc(Br)cc2)cc1` (stereo unspecified), the inhibition was 54.9%.

For the molecule `Nc1c2c(nc3sc4c(c13)CCCCC4)CCCC2`, the inhibition came to 97.9%.

On to `CN1C2CCC1/C(=C/c1ccccn1)C(=O)/C2=C\c1ccccn1`, for which the inhibition worked out at 99.4%.

On to `C[C@H]1C[C@@H](C)C(=O)[C@@H]([C@H](O)CC2CC(=O)NC(=O)C2)C1`, for which the inhibition was determined as 112%.

Consider `c1ccc2sc(NC3=NCCN3)nc2c1`, for which the inhibition was found to be 116%.

On to `Cc1cccc(N2C(=O)NC(=O)/C(=C/c3ccc([N+](=O)[O-])o3)C2=O)c1`, for which the inhibition stood at 62.1%.

`CNC(=O)Oc1ccc2ncccc2c1`: the inhibition amounted to 57.5%.

For `CC1(C)C[C@H]2C=C(C=O)[C@]3(C=O)C[C@]3(C)[C@H]2C1`, the inhibition is 105%.

Turning to `CN1/C(=C\C=C\C2=[N+](C)c3ccc4ccccc4c3C2(C)C)C(C)(C)c2ccccc21`, the inhibition was 96.3%.

On to `CCCCN(Cc1ccccc1)C1CCN(CCc2ccccc2)CC1`, for which the inhibition was determined as 50.5%.

`CN[C@H]1C[C@H]2O[C@@](C)([C@H]1OC)n1c3ccccc3c3c4c(c5c6ccccc6n2c5c31)C(=O)NC4`: the inhibition was 103%.

As to `CCOc1cc(CNCCc2c[nH]c3ccccc23)cc(Cl)c1OCC`, the inhibition amounted to 103%.

In the case of `O=C1/C(=C/c2cc3c(cc2Cl)OCO3)N2CCC1CC2`, the inhibition was found to be 54.4%.

In the case of `CC1CCCC(C)N1/N=C/c1c[nH]c2ccc(Br)cc12` (stereo unspecified), the inhibition was determined as 90.8%.

`Nc1c2c(nc3sc4c(c13)CCCC4)CCCCC2`: the inhibition worked out at 60.8%.
